The list shows a part of the results. Many values rest on one well or one pass, so single values are uncertain.
Columns and labels:
Assay in all cases: cell count relative to DMSO control; melanoma cells; higher = more viable cells
Conditions in all cases: library dose: standard library concentration; 72 h
A101D = test system: A101D
A2058 = test system: A2058
A375 = test system: A375
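Note: cells treated in 1,536-well plates, then fixed and DAPI-stained, with nuclei counted from automated high-throughput microscope images.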

In the case of CS(=O)(=O)c1ccc(C(=O)Nc2ccc(Cl)c(-c3ccccn3)c2)c(Cl)c1 [vismodegib] + CC(C)(C)c1cnc(CSc2cnc(NC(=O)C3CCNCC3)s2)o1 [SNS-032] (first compound 5 µM, partner dose 0.05 µM), the cell count (A101D) is reported as 109%, the cell count (A2058) is reported as 97.6% and the cell count (A375) is reported as 91.6%.
CS(=O)(=O)c1ccc(C(=O)Nc2ccc(Cl)c(-c3ccccn3)c2)c(Cl)c1 [vismodegib] + CNC(=O)c1cc(Oc2ccc(NC(=O)Nc3ccc(Cl)c(C(F)(F)F)c3)cc2)ccn1 [sorafenib] (first compound 5 µM, partner dose 2 µM) gave a cell count (A101D) of 102%, a cell count (A2058) of 102% and a cell count (A375) of 108%.
Molecule CN(c1ncccc1CNc1nc(Nc2ccc3c(c2)CC(=O)N3)ncc1C(F)(F)F)S(C)(=O)=O + C#Cc1cccc(Nc2ncnc3cc(OCCOC)c(OCCOC)cc23)c1 [erlotinib] (first compound 0.4 µM, partner dose 4 µM) has a cell count (A101D) of 55.7%, a cell count (A2058) of 56.6% and a cell count (A375) of 54.7%.
In the case of CS(=O)(=O)c1ccc(C(=O)Nc2ccc(Cl)c(-c3ccccn3)c2)c(Cl)c1 [vismodegib] + CO[C@@H]1[C@H](N(C)C(=O)c2ccccc2)C[C@H]2O[C@]1(C)n1c3ccccc3c3c4c(c5c6ccccc6n2c5c31)C(=O)NC4 [Midostaurin] (first compound 5 µM, partner dose 0.4 µM), the cell count (A101D) is reported as 91.2%, the cell count (A2058) is reported as 87.1% and the cell count (A375) is reported as 95.4%.
In the case of CS(=O)(=O)c1ccc(C(=O)Nc2ccc(Cl)c(-c3ccccn3)c2)c(Cl)c1 [vismodegib] + COc1ccc(Cl)c(Nc2nc3ccccc3nc2NS(=O)(=O)c2cccc(NC(=O)C(C)(C)N)c2)c1 [XL147] (first compound 5 µM, partner dose 4 µM), the cell count (A101D) is reported as 93.4%, the cell count (A2058) is reported as 81.3% and the cell count (A375) is reported as 78.3%.
For C=C(c1ccc(C(=O)O)cc1)c1cc2c(cc1C)C(C)(C)CCC2(C)C [Bexarotene] + Clc1ccc(Nc2nnc(Cc3ccncc3)c3ccccc23)cc1 [vatalanib] (first compound 10 µM, partner dose 10 µM), the cell count (A101D) was 75.8%, the cell count (A2058) was 95.5% and the cell count (A375) was 78.9%.
CS(=O)(=O)c1ccc(C(=O)Nc2ccc(Cl)c(-c3ccccn3)c2)c(Cl)c1 [vismodegib] + Cn1c(=O)n(-c2ccc(C(C)(C)C#N)cc2)c2c3cc(-c4cnc5ccccc5c4)ccc3ncc21 [NVP-BEZ235] (first compound 5 µM, partner dose 0.02 µM) showed a cell count (A101D) of 73.8%, a cell count (A2058) of 67.3% and a cell count (A375) of 86.7%.
In the case of CN(c1ncccc1CNc1nc(Nc2ccc3c(c2)CC(=O)N3)ncc1C(F)(F)F)S(C)(=O)=O + CN(C)S(=O)(=O)c1ccc2c(c1)/C(=C/c1cc3c([nH]1)CCCC3)C(=O)N2 [SU6656] (first compound 0.4 µM, partner dose 2 µM), the cell count (A101D) is reported as 67.3%, the cell count (A2058) is reported as 70.9% and the cell count (A375) is reported as 115%.
Molecule C=C(c1ccc(C(=O)O)cc1)c1cc2c(cc1C)C(C)(C)CCC2(C)C [Bexarotene] + CN(NC(=O)CC(=O)NN(C)C(=S)c1ccccc1)C(=S)c1ccccc1 [STA4783] (first compound 10 µM, partner dose 0.03 µM) has a cell count (A101D) of 61%, a cell count (A2058) of 11% and a cell count (A375) of 111%.
For NC1(c2ccc(-c3nc4ccn5c(=O)[nH]nc5c4cc3-c3ccccc3)cc2)CCC1 + CC1(C)NC(=O)N(c2ccc([N+](=O)[O-])c(C(F)(F)F)c2)C1=O [nilutamide] (first compound 2 µM, partner dose 5 µM), the cell count (A101D) was 107%, the cell count (A2058) was 92.6% and the cell count (A375) was 114%.
Molecule CN(c1ncccc1CNc1nc(Nc2ccc3c(c2)CC(=O)N3)ncc1C(F)(F)F)S(C)(=O)=O + CN(NC(=O)CC(=O)NN(C)C(=S)c1ccccc1)C(=S)c1ccccc1 [STA4783] (first compound 0.4 µM, partner dose 0.03 µM) has a cell count (A101D) of 53.4%, a cell count (A2058) of 7.99% and a cell count (A375) of 93.8%.
CN(c1ncccc1CNc1nc(Nc2ccc3c(c2)CC(=O)N3)ncc1C(F)(F)F)S(C)(=O)=O + CS(=O)(=O)CCNCc1ccc(-c2ccc3ncnc(Nc4ccc(OCc5cccc(F)c5)c(Cl)c4)c3c2)o1 [lapatinib] (first compound 0.4 µM, partner dose 4 µM) was tested, and the cell count (A101D) was 60%, the cell count (A2058) was 73% and the cell count (A375) was 101%.
Molecule CN(c1ncccc1CNc1nc(Nc2ccc3c(c2)CC(=O)N3)ncc1C(F)(F)F)S(C)(=O)=O + Clc1ccc(Nc2nnc(Cc3ccncc3)c3ccccc23)cc1 [vatalanib] (first compound 0.4 µM, partner dose 10 µM) has a cell count (A101D) of 71.8%, a cell count (A2058) of 72.4% and a cell count (A375) of 65.6%.
Molecule NC1(c2ccc(-c3nc4ccn5c(=O)[nH]nc5c4cc3-c3ccccc3)cc2)CCC1 + CC(=O)c1c(C)c2cnc(Nc3ccc(N4CCNCC4)cn3)nc2n(C2CCCC2)c1=O [palbociclib] (first compound 2 µM, partner dose 0.2 µM) has a cell count (A101D) of 56.5%, a cell count (A2058) of 59.5% and a cell count (A375) of 76%.
With CN(c1ncccc1CNc1nc(Nc2ccc3c(c2)CC(=O)N3)ncc1C(F)(F)F)S(C)(=O)=O + C=CCn1c(=O)c2cnc(Nc3ccc(N4CCN(C)CC4)cc3)nc2n1-c1cccc(C(C)(C)O)n1 [MK1775] (first compound 0.4 µM, partner dose 0.1 µM) the cell count (A101D) was 67.7%, the cell count (A2058) was 91.9% and the cell count (A375) was 59.3%.
In the case of NC1(c2ccc(-c3nc4ccn5c(=O)[nH]nc5c4cc3-c3ccccc3)cc2)CCC1 + COc1ccc(Cl)c(Nc2nc3ccccc3nc2NS(=O)(=O)c2cccc(NC(=O)C(C)(C)N)c2)c1 [XL147] (first compound 2 µM, partner dose 4 µM), the cell count (A101D) is reported as 73.6%, the cell count (A2058) is reported as 71.9% and the cell count (A375) is reported as 100%.
Molecule CN(c1ncccc1CNc1nc(Nc2ccc3c(c2)CC(=O)N3)ncc1C(F)(F)F)S(C)(=O)=O + CC(C)C[C@H](NC(=O)[C@H](Cc1ccccc1)NC(=O)c1cnccn1)B(O)O [Bortezomib] (first compound 0.4 µM, partner dose 0.005 µM) has a cell count (A101D) of 12%, a cell count (A2058) of 9.56% and a cell count (A375) of 83.8%.
In the case of CCCS(=O)(=O)Nc1ccc(F)c(C(=O)c2c[nH]c3ncc(Cl)cc23)c1F + CO[C@@H]1[C@H](N(C)C(=O)c2ccccc2)C[C@H]2O[C@]1(C)n1c3ccccc3c3c4c(c5c6ccccc6n2c5c31)C(=O)NC4 [Midostaurin] (first compound 0.4 µM, partner dose 0.4 µM), the cell count (A101D) is reported as 77%, the cell count (A2058) is reported as 80.2% and the cell count (A375) is reported as 76.2%.
CS(=O)(=O)c1ccc(C(=O)Nc2ccc(Cl)c(-c3ccccn3)c2)c(Cl)c1 [vismodegib] + CN(NC(=O)CC(=O)NN(C)C(=S)c1ccccc1)C(=S)c1ccccc1 [STA4783] (first compound 5 µM, partner dose 0.03 µM) gave a cell count (A101D) of 47.6%, a cell count (A2058) of 13.4% and a cell count (A375) of 136%.
C=C(c1ccc(C(=O)O)cc1)c1cc2c(cc1C)C(C)(C)CCC2(C)C [Bexarotene] + C[C@]1(c2nc3c(C(N)=O)cccc3[nH]2)CCCN1 [Veliparib] (first compound 10 µM, partner dose 7 µM) was tested, and the cell count (A101D) was 84.6%, the cell count (A2058) was 69.8% and the cell count (A375) was 95.2%.
Molecule C=C(c1ccc(C(=O)O)cc1)c1cc2c(cc1C)C(C)(C)CCC2(C)C [Bexarotene] + CO[C@@H]1[C@H](N(C)C(=O)c2ccccc2)C[C@H]2O[C@]1(C)n1c3ccccc3c3c4c(c5c6ccccc6n2c5c31)C(=O)NC4 [Midostaurin] (first compound 10 µM, partner dose 0.4 µM) has a cell count (A101D) of 86.1%, a cell count (A2058) of 46.9% and a cell count (A375) of 67.9%.
With C=C(c1ccc(C(=O)O)cc1)c1cc2c(cc1C)C(C)(C)CCC2(C)C [Bexarotene] + Nc1cccc2c1CN(C1CCC(=O)NC1=O)C2=O [lenalidomide] (first compound 10 µM, partner dose 5 µM) the cell count (A101D) was 80.7%, the cell count (A2058) was 92.8% and the cell count (A375) was 101%.
Molecule CCCS(=O)(=O)Nc1ccc(F)c(C(=O)c2c[nH]c3ncc(Cl)cc23)c1F + Cn1c(Nc2ccc(C(F)(F)F)cc2)nc2cc(Oc3ccnc(-c4ncc(C(F)(F)F)[nH]4)c3)ccc21 [CHIR265] (first compound 0.4 µM, partner dose 0.4 µM) has a cell count (A101D) of 60.3%, a cell count (A2058) of 86.2% and a cell count (A375) of 73.1%.
For CS(=O)(=O)c1ccc(C(=O)Nc2ccc(Cl)c(-c3ccccn3)c2)c(Cl)c1 [vismodegib] + CCN(CC)CCNC(=O)c1c(C)[nH]c(/C=C2\C(=O)Nc3ccc(F)cc32)c1C [sunitinib] (first compound 5 µM, partner dose 2 µM), the cell count (A101D) was 73%, the cell count (A2058) was 72.8% and the cell count (A375) was 120%.
For CN(c1ncccc1CNc1nc(Nc2ccc3c(c2)CC(=O)N3)ncc1C(F)(F)F)S(C)(=O)=O + COc1ccc(Cl)c(Nc2nc3ccccc3nc2NS(=O)(=O)c2cccc(NC(=O)C(C)(C)N)c2)c1 [XL147] (first compound 0.4 µM, partner dose 4 µM), the cell count (A101D) was 75.7%, the cell count (A2058) was 82.6% and the cell count (A375) was 65.6%.
With CN(c1ncccc1CNc1nc(Nc2ccc3c(c2)CC(=O)N3)ncc1C(F)(F)F)S(C)(=O)=O + CC(=O)c1c(C)c2cnc(Nc3ccc(N4CCNCC4)cn3)nc2n(C2CCCC2)c1=O [palbociclib] (first compound 0.4 µM, partner dose 0.2 µM) the cell count (A101D) was 63.5%, the cell count (A2058) was 80.3% and the cell count (A375) was 48.9%.
CCCS(=O)(=O)Nc1ccc(F)c(C(=O)c2c[nH]c3ncc(Cl)cc23)c1F + Clc1ccc(Nc2nnc(Cc3ccncc3)c3ccccc23)cc1 [vatalanib] (first compound 0.4 µM, partner dose 10 µM) showed a cell count (A101D) of 65.5%, a cell count (A2058) of 88.8% and a cell count (A375) of 85.5%.

From the supplement of paper PMC4604168 (melanoma cell lines)
